Assay results taken from PubChem BioAssay AID588342 (National Center for Advancing Translational Sciences (NCATS), 2011).
The whole screen tested about 360,000 compounds, of which about 25,000 (6.9%) were called active. The inconclusive results got no clear call from the source; some entries with a clear call stand among them for comparison. The call rests on the fitted dose curve; in most records, active means well fitted inhibition curve with a large enough effect; inconclusive means small, poorly fitted or top-dose-only effect; inactive means flat fitted curve, though single readings scatter. Potencies of inconclusive entries are doubtful fits and often do not repeat.

target: Luciferin 4-monooxygenase (Photinus pyralis) (UniProt P08659); assay: qHTS profiling assay for firefly luciferase inhibitor/activator using purifed enzyme and Km concentrations of substrates (counterscreen for miR-21 project); settings: purified FLuc, luminescence inhibition; series mostly up to 57.5 µM; further: nearly all actives have a fitted effect of over 55% in size
Method in brief: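 Biochemical qHTS of compounds, final roughly 60 µM downward over six points, against 10 nM purified firefly luciferase using Km concentrations of substrates (10 uM D-luciferin, 10 uM ATP) in Tris acetate pH 7.5 buffer; luminescence output.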
Potency means the concentration at half of the fitted maximal effect; tags describe the fitted curve by direction and shape.

Chain of UniProt P08659 (P08659 whole entry, looked up): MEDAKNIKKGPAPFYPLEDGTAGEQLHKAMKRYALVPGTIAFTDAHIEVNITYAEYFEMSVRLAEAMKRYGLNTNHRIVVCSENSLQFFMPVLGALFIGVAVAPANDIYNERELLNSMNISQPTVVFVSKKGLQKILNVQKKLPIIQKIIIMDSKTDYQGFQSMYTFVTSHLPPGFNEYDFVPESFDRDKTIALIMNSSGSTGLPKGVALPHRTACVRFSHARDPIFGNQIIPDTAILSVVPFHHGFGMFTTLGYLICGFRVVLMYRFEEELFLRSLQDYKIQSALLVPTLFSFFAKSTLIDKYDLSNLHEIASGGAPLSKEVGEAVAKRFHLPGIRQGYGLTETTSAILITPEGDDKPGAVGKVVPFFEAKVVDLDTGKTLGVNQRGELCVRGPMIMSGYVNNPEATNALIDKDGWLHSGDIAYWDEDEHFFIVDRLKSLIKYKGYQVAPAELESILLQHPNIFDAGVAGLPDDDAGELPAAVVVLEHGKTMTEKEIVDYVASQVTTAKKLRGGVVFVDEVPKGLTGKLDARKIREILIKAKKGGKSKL

Structure (SMILES) | Potency
Cc1ccc(-n2c(O)c(/C=C3/C(c4ccccc4)=Nc4ccccc43)c(=O)[nH]c2=O)cc1 | inconclusive: 23.9 µM [inhibitor, partial curve]
CC/C(=N\NC(=O)c1ccccc1O)c1c(O)n(C2CCCCC2)c(=O)[nH]c1=O | inconclusive: 21.3 µM [inhibitor, single point]
C[C@@]1([C@@H](NP(=O)(c2ccccc2)c2ccccc2)c2ccccc2)C[C@H]1CCO | inactive
COc1ccc(N2C(=O)/C(=C/c3ccco3)C(=O)NC2=S)cc1 | inconclusive: 21.3 µM [inhibitor, single point]
CCOc1ccc(N2C(=O)/C(=C/c3ccco3)C(=O)NC2=S)cc1 | inconclusive: 16.9 µM [inhibitor, partial curve]
Cc1nc2ccc(Nc3nc4cc(S(=O)(=O)N5CCOCC5)ccc4o3)cc2s1 | inconclusive: 26.9 µM [inhibitor, single point]
Cc1ccc(C(=O)Nc2nc3ccccc3[nH]2)cc1 | active: 0.0953 µM
O=C1NC(=O)N(c2ccccc2)C(=O)/C1=C/c1ccc(Sc2ccccc2)o1 | inconclusive: 16.9 µM [inhibitor, partial curve, poor fit]
C=CCN1C(=O)NC(=O)/C(=C/C=C/c2ccccc2)C1=O | inconclusive: 9.53 µM [inhibitor, partial curve]
O=C1NC(=O)N(Cc2ccc(F)cc2)C(=O)/C1=C\c1ccoc1 | inconclusive: 16.9 µM [inhibitor, partial curve]
CC1=C(C(=O)Nc2ccccc2)SCCO1 | inconclusive: 37.9 µM [inhibitor, partial curve, poor fit]
CCCCn1c(=O)c(C(=O)Nc2ccccc2F)c(O)c2ccccc21 | inactive
O=C(c1ccc2nc(-c3ccco3)c(-c3ccco3)nc2c1)N1CCC2(CC1)OCCO2 | inconclusive: 26.9 µM [inhibitor, single point]
CCOC(=O)CSc1ncnc2c1cnn2-c1ccccc1 | active: 12 µM
COCCN(Cc1ccccc1)P(=O)(O)c1ccccc1OCC(=O)O | inconclusive: 6.75 µM [inhibitor, single point]
Cc1cccc(-n2c(O)c(C=Nc3ccccc3N)c(=O)[nH]c2=O)c1 | inconclusive: 33.8 µM [inhibitor, partial curve, poor fit]
Cc1ccc(N2C(=O)/C(=C/c3ccc(CN(CCC#N)S(C)(=O)=O)o3)C(=O)NC2=S)cc1C | inconclusive: 26.9 µM [inhibitor, single point]
Cc1ccccc1C(=O)Nc1ccc(C(=O)OCc2cc(=O)n3nc(C4CC4)sc3n2)cc1 | inconclusive: 10.7 µM [inhibitor, partial curve]
CC1CCCC(C)N1C(=O)CSc1nnc(NC(=O)c2cccs2)s1 (stereo not drawn) | inconclusive: 26.9 µM [inhibitor, partial curve]
COc1cccc(NC(=O)c2ccc3c(=O)n4nc(Nc5ccccc5OC)sc4nc3c2)c1 | inconclusive: 37.9 µM [inhibitor, partial curve, poor fit]
OC[C@H]1O[C@@H](n2cnc3cc(Cl)c(Cl)cc32)[C@H](O)[C@@H]1O | inactive

Structure (SMILES) | Potency
c1ccc2sc(NC3=NCCN3)nc2c1 | inconclusive: 26.9 µM [inhibitor, partial curve, poor fit]
COc1ccc(N2C(=O)NC(=O)/C(=C\c3ccccc3[N+](=O)[O-])C2=O)cc1 | inconclusive: 16.9 µM [inhibitor, partial curve, poor fit]
Cc1ccc(C2CN(C)CC2C(=O)c2ccc(F)cc2)cc1 (stereo not drawn) | inconclusive: 26.9 µM [inhibitor, single point]
O=c1[nH]c(=O)n(-c2ccccc2F)c(O)c1/C=C1\C=Nc2ccccc21 | active: 16.9 µM
CCOP(=S)(OCC)Oc1cc(C)oc(=O)c1Cl | inconclusive: 37.9 µM [inhibitor, partial curve, poor fit]
COc1ccc(C(=O)Nc2ccc(-c3nc4ccccc4s3)c(Cl)c2)cc1Cl | inconclusive: 23.9 µM [inhibitor, partial curve]
CCN1C(=O)/C(=C/c2ccc(N(CC)CC)cc2OC)C(=O)NC1=S | inconclusive: 23.9 µM [inhibitor, single point]
Cc1ccc(N2C(=O)NC(=O)/C(=C\C=C\c3ccco3)C2=O)cc1C | inconclusive: 9.53 µM [inhibitor, partial curve, poor fit]
O=C1NC(=S)NC(=O)C1=Cc1cccc2cc3ccccc3cc12 | inconclusive: 10.7 µM [inhibitor, partial curve]
O=C1c2ccccc2C(=O)N1SC1CCCCC1 | inconclusive: 10.7 µM [inhibitor, partial curve]
O=C(CSc1ncnc2c1nnn2-c1ccc(F)cc1)NCC1CCCO1 (stereo not drawn) | active: 13.5 µM
COc1ccc(/C=C2/C(=O)NC(=O)N(c3ccccc3)C2=O)cc1CN1C(=O)c2ccccc2C1=O | inconclusive: 30.1 µM [inhibitor, partial curve, poor fit]
CCN(CC)c1ccc(/C=C2\C(=O)NC(=O)N(Cc3ccco3)C2=O)cc1 | inconclusive: 19 µM [inhibitor, single point]
Cc1ccc(N2C(=O)NC(=O)/C(=C/c3ccc(-c4ccc(C(=O)O)c(Cl)c4)o3)C2=O)cc1 | active: 10.7 µM
Cc1ccc(C=C2C(Cl)=C(Cl)C(Cl)=C2Cl)cc1 | inconclusive: 37.9 µM [inhibitor, partial curve, poor fit]
O=C(N/N=C/c1c(O)n(Cc2ccco2)c(=O)[nH]c1=O)c1ccccc1 | inconclusive: 21.3 µM [inhibitor, partial curve, poor fit]
CC1(C)Cc2c(sc3nc4n(-c5ccccc5)c(=O)c(CCC(=O)O)nn4c(=O)c23)CO1 | inconclusive: 23.9 µM [inhibitor, partial curve, poor fit]
COc1cc(/C=C2/SC(=S)N(Cc3ccccc3)C2=O)ccc1OCC(=O)O | inconclusive: 21.3 µM [inhibitor, single point]
Oc1cccc(Nc2ncnc3sc4c(c23)CCCC4)c1 | inconclusive: 21.3 µM [inhibitor, partial curve, poor fit]
O=C(O)CCCc1ccc(N(CCCl)CCCl)cc1 | inconclusive: 16.9 µM [inhibitor, partial curve]
COc1ccc(Cn2c(N)c(C(=O)NCc3ccco3)c3nc4ccccc4nc32)cc1 | inactive

Structure (SMILES) | Potency
Cc1ccc(OCC(=O)N/N=C\c2ccc(O)c([N+](=O)[O-])c2)c([N+](=O)[O-])c1 | active: 26.9 µM
O=C1NC(=O)C(=Cc2ccc(N3CCN(C(=O)c4ccccc4)CC3)c([N+](=O)[O-])c2)C(=O)N1 | active: 21.3 µM
O=C1NC(=O)C(=Cc2ccc(-c3ccc(Cl)cc3)o2)C(=O)N1 | active: 6.75 µM
COc1cc(CC2(CCc3ccncc3)C(=O)NC(=O)NC2=O)cc(OC)c1OC | inactive
O=C1NC(=O)C(=Cc2ccc(-c3ccccc3[N+](=O)[O-])o2)C(=O)N1 | inconclusive: 19 µM [inhibitor, partial curve]
CC(C)(C)OC(=O)c1c(N)n(Cc2ccco2)c2nc3ccccc3nc12 | inconclusive: 37.9 µM [inhibitor, partial curve, poor fit]
C=CCN1CCc2cccc3c2[C@H]1Cc1ccc(O)c(O)c1-3 | inconclusive: 26.9 µM [inhibitor, partial curve, poor fit]
c1ccc(NC2=Nc3ccccc3CC2)cc1 | inconclusive: 19 µM [inhibitor, partial curve, poor fit]
O=C(O)Cn1cc(/C=C2\C(=O)NC(=O)N(c3ccc(Cl)cc3)C2=O)c2ccccc21 | inconclusive: 19 µM [inhibitor, single point]
O=C(CCCOc1ccc(Cl)cc1Cl)N1CCC2(CC1)OCCO2 | inconclusive: 23.9 µM [inhibitor, single point]
Cc1cc(C=C(C#N)C#N)ccc1N1CCCC1 | inconclusive: 26.9 µM [inhibitor, single point]
CNC(=O)c1cccn(Cc2ccc(C(F)(F)F)cc2)c1=O | inactive
BrCC1C[n+]2c(SCc3ccccc3)nc3sc4c(c3c2O1)CCCC4 (stereo not drawn) | inconclusive: 37.9 µM [inhibitor, single point]
CCC(=NCc1ccc2c(c1)OCO2)c1c(O)n(C2CCCCC2)c(=O)[nH]c1=O | inactive
O=c1c2ccccc2nc(/C=C/c2ccccc2O)n1-c1ccccc1O | inconclusive: 37.9 µM [inhibitor, partial curve, poor fit]
COc1ccc2nc3oc(C(=O)N4CCC5(CC4)OCCO5)cc3cc2c1 | inconclusive: 26.9 µM [inhibitor, single point]
Oc1ccc(Cl)cc1CN1CCN(Cc2ccccc2)CC1 | inconclusive: 8.49 µM [inhibitor, partial curve, poor fit]
COc1cccc(-n2c(-c3ccoc3)nc3ccccc3c2=O)c1 | inconclusive: 26.9 µM [inhibitor, single point]
Cc1cc(Cl)ccc1OCC(=O)O | inconclusive: 30.1 µM [inhibitor, partial curve, poor fit]
CN(C)C(=O)Oc1ccc(C(=O)c2ccccc2)cc1 | inconclusive: 33.8 µM [inhibitor, partial curve, poor fit]
CN1CCN(c2ccc(C(F)(F)F)cc2N)CC1 | inconclusive: 37.9 µM [inhibitor, partial curve, poor fit]
